Results from PubChem BioAssay AID493208 (National Center for Advancing Translational Sciences (NCATS), 2011).
Among all 44,000 compounds or so, about 340 (0.77%) were called active. Inconclusive results (about 5%) are left out. The call rests on the fitted dose curve; in most records, active means well fitted inhibition curve with a large enough effect; inconclusive means small, poorly fitted or top-dose-only effect; inactive means flat fitted curve, though single readings scatter. This is one part of the list.

assay: Acumen qHTS Assay for Inhibitors of the mTORC1 Signaling Pathway in MEF (Tsc2-/-, p53-/-) Cells: Sytravon; details: phospho-rpS6 immunofluorescence/PI, 24 h; series mostly up to 38.3 µM; activity change, negative = inhibition: at the top concentration;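 further: plate controls were DMSO for no effect and rapamycin for full effect; nearly all actives have a fitted effect of over 50% in size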
Method in brief: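 Plate MEFs (Tsc2-/-, p53-/-, empty vector) in DMEM/10% FBS; after 24 h add compound, incubate 24 h at 37 degree Celsius; fix in PFA/TX-100, block, stain phospho-rpS6 and 10 uM PI; scan at 488 nm; report % positive cells.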

Activity change, negative = inhibition, inactive:
Cc1ccc(C2c3[nH]c4ccccc4c3CCN2C(=O)c2ccc(N(C)C)cc2)cc1 (stereo unspecified) -7.27%
Cc1ccc2oc(C(=O)Nc3c(C(=O)c4ccc(C)c(F)c4)oc4ccccc34)cc(=O)c2c1 2.11%
O=S(=O)(Nc1c(F)cccc1F)c1ccc2c(c1)OCCO2 -9.93%
CCOC(=O)N1CCc2c(sc3c2c(=O)n(Cc2ccccc2)c(=O)n3CC(=O)Nc2ccccc2F)C1 3.56%
COc1ccc(C)cc1NC(=O)C(CCSC)NS(=O)(=O)c1ccc2c(c1)oc(=O)n2C (stereo unspecified) -18.1%
CCn1nnc2cc(C(=O)Nc3cccc(C(F)(F)F)c3)ccc21 4.03%
CC(C)NC(=O)c1cnc2sc(N3CCCCCC3)nn2c1=O 0%
COc1ccc(CN(C(=O)Nc2ccccc2)c2ccccn2)cc1OC -10.3%
Cc1ccc(S(=O)(=O)N(Cc2nc(-c3ccc(Cl)cc3)no2)C2CCCCC2)cc1 -1.56%
COc1ccc(-c2noc(-c3ccc(N4CCOCC4)c([N+](=O)[O-])c3)n2)cc1OC 3.58%
CCOCCCNC(=O)N1CCN(S(=O)(=O)c2ccc3c(ccn3C)c2)CC1 -7.67%
COc1ccccc1N1CCN(CCC(=O)Nc2cccc(F)c2)CC1 0.857%
Cn1c(=O)c2c(SCC(=O)NCC3CCCO3)nc(-c3ccccc3F)nc2n(C)c1=O (stereo unspecified) 1.57%
CCOC(=O)c1ccc(NS(=O)(=O)c2cc3c(cc2C)n(C)c(=O)c(=O)n3C)cc1 -2.58%
CCOc1ccc(CNC(=O)c2cnc(SC)nc2CC)cc1 0.26%
CCOc1ccc(NC(=O)CSc2oc(-c3cccs3)nc2S(=O)(=O)c2ccc(Cl)cc2)cc1 -1.61%
O=C(Cn1c(=O)n(-c2ccccc2)c(=O)c2ccc(C(=O)NCc3ccc4c(c3)OCO4)cc21)Nc1ccc(Br)cc1F -5.87%
COc1ccc(CNc2nc(-c3ccc(OC)c(OC)c3)cc(C(F)(F)F)n2)cc1 -15.5%
CCCCSCCCNC(=O)CN1C(=O)COc2ccc(S(=O)(=O)N3CCCC3)cc21 -7.73%
Cc1cc(NC(=O)c2ccc(Cl)c(Cl)c2)ccc1-c1cc2ccccc2oc1=O 1.38%
CCCSc1ncc(Cl)c(C(=O)Nc2ccc(CC)cc2)n1 -6.59%
CC1(C)C(=O)N(CC(=O)Nc2ccc(OC(F)(F)F)cc2)c2ccccc21 0%
Cc1ccc(CNC(=O)CSc2nc3ccsc3c(=O)n2-c2ccc(C(=O)O)cc2)cc1 1.38%
O=C(CSC1=Nc2ccccc2C2=NC(CCC(=O)NC3CCCCC3)C(=O)N12)Nc1cccc(Cl)c1 (stereo unspecified) 2.59%
CCOC(=O)C1CCC(CN(Cc2c(Cl)cccc2Cl)S(=O)(=O)c2ccc(F)c(C)c2)CC1 (stereo unspecified) -8.96%
COc1cccc(NC(=O)CCNS(=O)(=O)c2ccc3c(c2)CCCC(=O)N3)c1 -7.68%
CCOC(=O)c1c(C)[nH]c(C)c1S(=O)(=O)N(C)CC(=O)Nc1cc(Cl)ccc1OC 3.29%
Cc1cccc(NC(=O)c2ccc(F)c(S(=O)(=O)N(C)C3CCCCC3)c2)c1 5.27%
CCOc1ccc(C(=O)N2CCN(Cc3cc(=O)n4nc(-c5cccc(OC)c5)sc4n3)CC2)cc1 6.24%
CC(=O)Nc1ccc(Nc2nc3ccc(C)cc3n3nnnc23)cc1 -3.32%
COc1ccc(NC(=O)C(C)n2nc(C)c3c(C)n(-c4ccccc4)nc3c2=O)cc1Cl (stereo unspecified) -7.43%
CCOCCCNC(=O)C(c1ccc(Cl)cc1)N(Cc1ccc2c(c1)OCO2)C(=O)c1ccccc1O (stereo unspecified) 16.7%
COc1ccc(-c2nc(S(=O)(=O)c3ccccc3)c(N3CCCCC3)o2)cc1 -13.1%
CCN(Cc1nc(-c2ccc(OC)cc2)oc1C)S(=O)(=O)c1ccc(Cl)cc1 0%
Cc1ccc(C)c(OCCCn2c(-c3ccc(Cl)cc3)nc3ccccc3c2=O)c1 -0.535%
COc1ccc(N2CCN(C(=O)c3cccn4c(=O)c5ccc(Cl)cc5nc34)CC2)cc1 -7.82%
Cc1ccc2oc(=O)c3cnn(CC(=O)Nc4ccc(Br)cc4C)c3c2c1 4.86%
CCc1cccc(C)c1NC(=O)COCc1cc(-c2ccc3c(c2)OCO3)on1 -0.597%
Cc1cc(C)c(Cn2c(C)c(CNCc3ccccc3C)c(C(=O)O)c2C)c(C)c1 7.33%
CCc1ccccc1NC(=O)C(=O)c1cc(C)n(-c2ccccc2F)c1C 0%
O=C(c1ccco1)N(Cc1cccnc1)c1nc2c(F)cccc2s1 -10.4%
CC1CCCCN1C(=O)CSc1nc2ccccc2nc1Cc1ccc(Cl)cc1 (stereo unspecified) 0.934%
COc1cc(OC)cc(-c2nc3nc(C)c(CCC(=O)Nc4ccc(C)cc4)c(C)n3n2)c1 -5.95%
Nc1c(C(=O)Nc2ccccc2Cl)nnn1Cc1cccc(Cl)c1 0.289%
Cc1ccc(NCc2nc3ccccc3n2CCOc2ccccc2C)cc1 -11.4%
COC(=O)c1cc(NC(=O)c2cnc(SC)nc2-c2ccccc2)cc(C(=O)OC)c1 -1.13%
Cc1c(CCNS(=O)(=O)c2ccccc2)sc2nc(-c3ccc(Cl)cc3)nn12 -12%
CCNc1nc2c(c(=O)n(C)c(=O)n2C)n1CC(O)COc1ccccc1 (stereo unspecified) -3.29%
COc1ccc(NC(=O)Nc2cccc(C)n2)c(OC)c1 5.12%
Cc1c2cnn(CC(=O)O)c(=O)c2c(C)n1Cc1cccc(Cl)c1 1.61%
O=C(CC1N=C2c3ccccc3N=C(SCc3ccc(Cl)cc3)N2C1=O)NC1CCCCC1 (stereo unspecified) 1.05%
Cc1cc2c(cc1S(=O)(=O)CCC(=O)Nc1ccc(OC(F)(F)F)cc1)OCC(=O)N2 7.08%
CCOc1ccc2cc(-c3nnc(Nc4ccccc4F)s3)c(=O)oc2c1 21%
Cc1ccc(CNC(=O)COCc2cc(-c3ccc4c(c3)OCO4)on2)cc1 -6.96%
O=C(NCc1cccc(Br)c1)c1ccc(-n2cnc3cccnc32)cc1 -7.24%
Cc1ccc(-n2ncc3c(N4CCC(C)CC4)ncnc32)cc1C 11%
COc1ccc(C(C(=O)NCc2ccccc2)N(C(=O)Cn2nnc3ccccc32)c2ccc(F)cc2)cc1 (stereo unspecified) -3.62%
COc1ccc(NCc2nc3ccccc3n2CCOc2ccc(C)cc2)cc1 -15.3%
Cc1ccc(Cl)cc1N1CCN(C(=O)c2cn(C)c3ccc(S(=O)(=O)N4CCC(C)CC4)cc3c2=O)CC1 -3.15%
O=C(NCC(c1ccc(Cl)cc1)N1CCCCC1)c1ccccc1 (stereo unspecified) 1.29%
CCCOc1ccc(C(=O)N(Cc2cccs2)C2CCS(=O)(=O)C2)cc1 (stereo unspecified) -3.16%
